Values marked as one replicate rest on one cluster of the flow cell; about a third of the high ones do not repeat.
system: ATP; test: switch fluorescence ratio, 500 uM ATP over buffer (Cy3 cluster intensity, sum of 5 cycles each) (fold (ratio)); higher = stronger signal-on switching upon ATP binding; sequences stand for … in TCGTCGGCAGCGTCAGATGTGTATAAGAGACAGTTTTTTTTTTTTTTTTTTTTTTTTT…TC; conditions: aptamer strand: ATP DNA aptamer (quencher-CACCTGGGGGAGTATTGCGGAGGAAGG + anchor), 100 nM annealed; ATP concentration: 500 uM; one replicate
Procedure, shortened: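 Five buffer/ATP imaging cycles were run on Cy3-labelled switching-strand clusters on a modified Illumina MiSeq flow-cell, with NaOH stripping and re-annealing between cycles. In each cycle, clusters annealed to 100 nM quencher-labelled ATP aptamer were imaged in selection buffer, then after 15 min with 500 uM ATP at 22 °C. Per cluster, the fluorescence ratio is summed target-cycle over summed buffer-cycle Cy3 intensity, averaged per switch-domain sequence. Only clusters within 100-1000 RFU were kept.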
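Further: ATP exposure 15 min at 22 °C before imaging.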

**Q.** With GTGAGACACA as the sequence, how does the switch fluorescence ratio read?
**A.** 0.979

**Q.** Which switch fluorescence ratio does the source give for GTGTCGTGAC here?
**A.** 0.978

**Q.** TGGCTATTCC was tested. Which switch fluorescence ratio did it give?
**A.** 1.03

**Q.** With TATGTCAACA as the sequence, how does the switch fluorescence ratio read?
**A.** 0.975

**Q.** How did the switch fluorescence ratio turn out when ATACTTACGA was run?
**A.** 1.37

**Q.** For ACCGGTGACC, which switch fluorescence ratio is on record?
**A.** 1.07

**Q.** Which switch fluorescence ratio does the source give for GGGTGGCTTC here?
**A.** 0.976

**Q.** GGCCTAAGGT was tested. Which switch fluorescence ratio did it give?
**A.** 0.989

**Q.** Which switch fluorescence ratio does the source give for ATGCTCTCTA here?
**A.** 0.954

**Q.** Which switch fluorescence ratio does the source give for GGAGTAACCG here?
**A.** 0.956

**Q.** TTACGAGAGA was tested. Which switch fluorescence ratio did it give?
**A.** 0.984

**Q.** With GCTAGAGAGC as the sequence, how does the switch fluorescence ratio read?
**A.** 0.983

**Q.** Which switch fluorescence ratio does the source give for GTCCGGTAAC here?
**A.** 1.76

**Q.** For TGTACATTTC, which switch fluorescence ratio is on record?
**A.** 1.05

**Q.** How did the switch fluorescence ratio turn out when AAAGTCTGCC was run?
**A.** 0.954

**Q.** How did the switch fluorescence ratio turn out when GGTAAACACT was run?
**A.** 1.04

**Q.** How did the switch fluorescence ratio turn out when ACCCTATTCA was run?
**A.** 1.09

**Q.** Which switch fluorescence ratio does the source give for AGTAAAAAGA here?
**A.** 0.981

**Q.** Which switch fluorescence ratio does the source give for CACAGGTGAT here?
**A.** 2.8

**Q.** Which switch fluorescence ratio does the source give for TGAATCTTCC here?
**A.** 2.63

**Q.** TGCGGAACAC was tested. Which switch fluorescence ratio did it give?
**A.** 1.63

**Q.** GCGGCACCGG was tested. Which switch fluorescence ratio did it give?
**A.** 0.963

**Q.** How did the switch fluorescence ratio turn out when ATGGTCGACG was run?
**A.** 1.02

**Q.** For TCTGAAGGCA, which switch fluorescence ratio is on record?
**A.** 1.13

**Q.** For AGGCTTGTTG, which switch fluorescence ratio is on record?
**A.** 0.986

**Q.** For ATTTGCGTTA, which switch fluorescence ratio is on record?
**A.** 1.02

**Q.** How did the switch fluorescence ratio turn out when TCATAGCTTG was run?
**A.** 0.99

**Q.** With TGGTGCACAC as the sequence, how does the switch fluorescence ratio read?
**A.** 1.05

**Q.** Which switch fluorescence ratio does the source give for CTTATCTTAT here?
**A.** 0.947

**Q.** How did the switch fluorescence ratio turn out when TTCGATAGTA was run?
**A.** 0.948

**Q.** Which switch fluorescence ratio does the source give for TCTTCTTTTC here?
**A.** 0.969

**Q.** For CCTAACGACA, which switch fluorescence ratio is on record?
**A.** 1.41

**Q.** With AGCGAAGATT as the sequence, how does the switch fluorescence ratio read?
**A.** 0.954

**Q.** For TGTTGGCATT, which switch fluorescence ratio is on record?
**A.** 0.983

**Q.** Which switch fluorescence ratio does the source give for GTTCGGCTGC here?
**A.** 0.95

**Q.** With ACTTCTCATT as the sequence, how does the switch fluorescence ratio read?
**A.** 1.08

**Q.** For TATAATAACA, which switch fluorescence ratio is on record?
**A.** 0.986

**Q.** With CGTTATCGCT as the sequence, how does the switch fluorescence ratio read?
**A.** 0.971

**Q.** For GAAGCCCGTT, which switch fluorescence ratio is on record?
**A.** 0.995

**Q.** GGAGGATTAA was tested. Which switch fluorescence ratio did it give?
**A.** 0.973

**Q.** For TGTGTTGACA, which switch fluorescence ratio is on record?
**A.** 0.947

**Q.** Which switch fluorescence ratio does the source give for CCTCCCTCGG here?
**A.** 2.55

**Q.** For TGGTATCTGC, which switch fluorescence ratio is on record?
**A.** 0.955

**Q.** Which switch fluorescence ratio does the source give for TAGCTTTCTT here?
**A.** 0.978

**Q.** For GCGCCTTGAT, which switch fluorescence ratio is on record?
**A.** 0.996

**Q.** For CCCCAGTGCG, which switch fluorescence ratio is on record?
**A.** 3.61

**Q.** With AAACGTCATG as the sequence, how does the switch fluorescence ratio read?
**A.** 1.05

**Q.** GCCGTTGGC was tested. Which switch fluorescence ratio did it give?
**A.** 1

**Q.** TCATAAGTCA was tested. Which switch fluorescence ratio did it give?
**A.** 1

**Q.** AGTACTACA was tested. Which switch fluorescence ratio did it give?
**A.** 1.01

**Q.** With ATACAATGGC as the sequence, how does the switch fluorescence ratio read?
**A.** 0.998

**Q.** Which switch fluorescence ratio does the source give for CAGCTTCACA here?
**A.** 1.04

**Q.** For GACGTCTATG, which switch fluorescence ratio is on record?
**A.** 1.01

**Q.** With AGGGGGTCAT as the sequence, how does the switch fluorescence ratio read?
**A.** 0.983

**Q.** Which switch fluorescence ratio does the source give for GGCTGGCCGG here?
**A.** 0.953

**Q.** With ATGGTTGGCG as the sequence, how does the switch fluorescence ratio read?
**A.** 0.955

**Q.** TTAAAAACGA was tested. Which switch fluorescence ratio did it give?
**A.** 1.28

**Q.** With GGGGATTGGT as the sequence, how does the switch fluorescence ratio read?
**A.** 0.981

**Q.** TCCCCTCTCG was tested. Which switch fluorescence ratio did it give?
**A.** 1.01

**Q.** Which switch fluorescence ratio does the source give for GGATGCGACT here?
**A.** 1.05

**Q.** With TTGGGTGCGT as the sequence, how does the switch fluorescence ratio read?
**A.** 1.02

**Q.** GTGGAGAAGA was tested. Which switch fluorescence ratio did it give?
**A.** 0.97

**Q.** With AGTGGTGGA as the sequence, how does the switch fluorescence ratio read?
**A.** 0.974

**Q.** For AACACGTC, which switch fluorescence ratio is on record?
**A.** 1.03

**Q.** Which switch fluorescence ratio does the source give for AATGGGAAAC here?
**A.** 1.01

**Q.** CTCGGGGCGC was tested. Which switch fluorescence ratio did it give?
**A.** 1.03

**Q.** ATGCGAGCAC was tested. Which switch fluorescence ratio did it give?
**A.** 0.995

**Q.** For TAAAAATCGC, which switch fluorescence ratio is on record?
**A.** 0.942

**Q.** With GCTTAAGTGC as the sequence, how does the switch fluorescence ratio read?
**A.** 0.986

**Q.** How did the switch fluorescence ratio turn out when ATGATCGCCT was run?
**A.** 1.03

**Q.** GGATATTCT was tested. Which switch fluorescence ratio did it give?
**A.** 0.993

**Q.** Which switch fluorescence ratio does the source give for TTAATCGAGC here?
**A.** 1.05

**Q.** CACATTCAAT was tested. Which switch fluorescence ratio did it give?
**A.** 0.998

**Q.** For TTCATCTGCG, which switch fluorescence ratio is on record?
**A.** 1.11

**Q.** How did the switch fluorescence ratio turn out when ATTGATGC was run?
**A.** 0.992

**Q.** With GAGATGGACT as the sequence, how does the switch fluorescence ratio read?
**A.** 1.01

**Q.** Which switch fluorescence ratio does the source give for CTGTCTCCCT here?
**A.** 1.01

**Q.** With AAGACTGGAT as the sequence, how does the switch fluorescence ratio read?
**A.** 1.01

**Q.** CAGTGTCCCC was tested. Which switch fluorescence ratio did it give?
**A.** 0.975

**Q.** How did the switch fluorescence ratio turn out when GTTATCGGTC was run?
**A.** 0.952

**Q.** How did the switch fluorescence ratio turn out when ATGGTCGACA was run?
**A.** 0.944

**Q.** How did the switch fluorescence ratio turn out when ACCCCATG was run?
**A.** 1.27

**Q.** With ATTGGGCCTT as the sequence, how does the switch fluorescence ratio read?
**A.** 1.03

**Q.** How did the switch fluorescence ratio turn out when AGCTATTAAA was run?
**A.** 0.969

**Q.** For TAGAGAATTA, which switch fluorescence ratio is on record?
**A.** 1.01

Source: the supplement of paper PMC10126150
